Reference: PubChem BioAssay AID463173 (ICCB-Longwood Screening Facility, Harvard Medical School, 2010)
Screen size: about 52,000 compounds; about 1,700 (3.3%) were called active. Rule as the data show it: active = survival mostly below about 52% (no sharp cut-off); inactive = mostly above about 56%. The list shows a part of the results.

Each compound was assayed on Wild type (assay: growth inhibition of S. aureus wild type versus tarO mutant, primary screen, teichoic acid synthesis inhibitors, RN4220, OD600 (AID 463173)). Conditions: S. aureus RN4220 wild type/DeltatarO growth, OD600, 18 h, hits give low values, screened at 18.75 µg/mL (by protocol).
`CCOc1ccc(CNC(=O)CC(C)n2nc(C)cc2C)cc1OC` (stereo unspecified) was tested, and the survival was inactive: 91%. `Cc1ccc(NC(=O)c2ccc(CN3CC(=O)N4CCCCC4C3=O)cc2)cc1` (stereo unspecified) was tested, and the survival was active: -6%. `Nc1nnc(SCC(=O)C2CC2)s1` was tested, and the survival was inactive: 108%. With `CCc1nn2c(=O)cc(COC(=O)c3ccc(NC(=O)COc4ccc(C)cc4)cc3)nc2s1` the survival was inactive: 115%. With `Cn1c(SCC(=O)N2CCCc3ccccc32)ncc(C(=O)Nc2ccccc2)c1=O` the survival was inactive: 128%. With `CCc1cccc(NC(=O)Cn2c(=O)n(-c3cccc(Cl)c3)c(=O)c3c2c2cc(C)ccc2n3C)c1` the survival was inactive: 68%. With `Cc1ccc(S(=O)(=O)N(C)CC(=O)O)cc1` the survival was inactive: 113%. With `COc1ccc(OC)c(CNC(=O)c2cnc3c(C)cccn3c2=O)c1` the survival was inactive: 74%. `Cc1cc(C)cc(NC(=O)CSc2nc(=O)n(Cc3ccccn3)c3c2CCC3)c1` was tested, and the survival was inactive: 64%. With `CCOC(=O)C(C)Sc1nc(-c2ccccc2Cl)cc(-c2ccccc2)c1C#N` (stereo unspecified) the survival was inactive: 79%. With `CCN(CC)C(=O)c1ccccc1NC(=O)c1ccccc1` the survival was inactive: 98%. In the case of `CCN(c1ccccc1)S(=O)(=O)c1ccc(-c2cc(C)no2)s1`, the survival is reported as inactive: 159%. With `CSc1ccc(Cn2nnc(C(=O)Nc3ccc(C)cc3Cl)c2N)cc1` the survival was inactive: 97%. `Cc1ccc2[nH]c(=O)c(CN(C(=O)c3cccc(Cl)c3)C(C)(C)C)cc2c1` was tested, and the survival was inactive: 108%. For `Cc1ccccc1C(=O)Nc1cccc(C(=O)OCc2cc(=O)n3ccsc3n2)c1`, the survival was inactive: 64%. For `Cc1cccc(Oc2nc3c(c(=O)n(C)c(=O)n3C)n2Cc2ccccc2)c1C`, the survival was inactive: 75%. In the case of `COc1ccc(-n2cc(-c3ccccc3)c3c(NC4CCCC4)ncnc32)cc1`, the survival is reported as inactive: 59%. `CC(C)(C)NS(=O)(=O)c1ccc(NC(=O)CN2C(=O)c3ccccc3C2=O)cc1` was tested, and the survival was inactive: 107%. In the case of `CC(C)CC(=O)Nc1cc(-c2ccccc2F)nn1-c1ccccc1`, the survival is reported as inactive: 82%. For `Cc1cccc(C)c1OCc1cc(=O)n2c3c(sc2n1)CCCC3`, the survival was active: -1%. For `COc1ccccc1-c1noc(CCCC(=O)NCc2ccco2)n1`, the survival was inactive: 86%. `Cc1cc(C)cc(NC(=O)Nc2nnc(N(C)C3CCCCC3)s2)c1` was tested, and the survival was inactive: 127%. For `C=CCn1c(/N=C/c2ccc3c(c2)OCO3)nc2ccccc21`, the survival was inactive: 103%. In the case of `COc1cc(NC(=O)Cn2c(=O)n(CC3CCCO3)c(=O)c3ccccc32)cc(OC)c1` (stereo unspecified), the survival is reported as inactive: 121%. With `CCOc1ccc(CCNc2nc3ccccc3n3c(C)nnc23)cc1OCC` the survival was inactive: 111%. In the case of `COc1ccc(C(=O)Nc2nnc(C(C)C)s2)cc1OC`, the survival is reported as inactive: 85%. `COc1ccc2sc(N(Cc3cccnc3)C(=O)COc3ccccc3)nc2c1` was tested, and the survival was inactive: 57%. With `CCn1cnc2c(=O)oc3ccc(S(=O)(=O)Nc4ccc(OC)cc4)cc3c21` the survival was inactive: 81%. `O=c1ccc2nc3ccccc3c(=O)n2[nH]1` was tested, and the survival was inactive: 111%. `COc1ccc(CCNC(=O)c2ccc(Cn3c(=O)c4ccccc4n(Cc4cccc(C)c4)c3=O)cc2)cc1OC` was tested, and the survival was inactive: 126%. In the case of `CCC1CCCCN1S(=O)(=O)c1cc(C(=O)Nc2ccc(C)c(F)c2)ccc1F` (stereo unspecified), the survival is reported as inactive: 71%. `CCOCCCn1c(=N)c(C(=O)NC2CCCC2)cc2c(=O)n3cc(C)ccc3nc21` was tested, and the survival was inactive: 70%. In the case of `Cc1ccc(CNC(=O)c2cnn(-c3cccc(C)c3)c2C2CCN(C(=O)OC(C)(C)C)CC2)cc1`, the survival is reported as inactive: 84%. For `CCCCc1nn2c(=O)cc(COC(=O)c3ccc(NC(=O)C(CC)CC)cc3)nc2s1`, the survival was inactive: 78%. With `Cc1ccc(NC(=O)c2cc3nc(-c4ccccc4)cc(-c4ccccc4)n3n2)cc1` the survival was inactive: 92%. With `COc1ccccc1Cc1nc2ccccc2nc1SCC(=O)Nc1cc(Cl)ccc1OC` the survival was inactive: 89%. For `COCCNC(=O)CSc1nc(-c2ccccc2)[nH]c1-c1ccc(OC)cc1`, the survival was inactive: 74%. `CCOC(=O)c1c(S(=O)(=O)N2CCC(C(=O)Nc3ccc(C)cc3C)CC2)c(C)n(C)c1C` was tested, and the survival was inactive: 69%. With `N#Cc1nc(-c2ccccc2)oc1NCCCn1ccnc1` the survival was inactive: 92%. For `Cc1cc(C)cc(NC(=O)c2cnc3sc(N4CCCC4)nn3c2=O)c1`, the survival was inactive: 73%. For `CCc1ccccc1NC(=O)c1nnn(Cc2ccc(Cl)cc2)c1N`, the survival was inactive: 85%. `COc1cccc(-n2c(SCC(=O)Nc3nnc(C)s3)nc3c([nH]c4ccccc43)c2=O)c1` was tested, and the survival was inactive: 47%. For `Fc1ccc2[nH]c(-c3cccs3)cc2c1`, the survival was inactive: 45%. With `CC(C)Cn1c(=O)c2sccc2n2c(CCCC(=O)N3CCN(c4ccc(F)cc4)CC3)nnc12` the survival was inactive: 109%. In the case of `Cc1cc(CN2CCN(c3cccc(C)c3C)CC2)cs1`, the survival is reported as inactive: 92%. With `CCOc1ccc(NC(=O)C2CCCN(S(=O)(=O)c3c(C)noc3/C=C/N(C)C)C2)cc1` (stereo unspecified) the survival was inactive: 87%. `CCOC(=O)C1=C(CN2CCN(c3ccc(OC)cc3)CC2)NC(=O)NC1c1ccc(Cl)cc1` (stereo unspecified) was tested, and the survival was inactive: 68%. For `O=C(Nc1cccc(C(F)(F)F)c1)c1cc2nc(-c3ccc4c(c3)OCO4)cc(C(F)(F)F)n2n1`, the survival was inactive: 65%. `C=CCC(c1ccccc1)N(C(C)=O)c1ccco1` (stereo unspecified) was tested, and the survival was inactive: 99%. With `Cc1ccc(-c2nc(CSc3nncn4c3cc3occc34)c(C)o2)cc1` the survival was inactive: 92%. With `NCCc1nc2cccnc2n1-c1ccccc1` the survival was inactive: 100%. In the case of `Cc1ccc(Cn2cc(C(=O)c3ccc4c(c3)OCO4)c(=O)c3cc(C)ccc32)cc1`, the survival is reported as inactive: 81%. With `COc1ccc(C)cc1NC(=O)N1CC(C)Sc2ccccc21` (stereo unspecified) the survival was inactive: 66%. `Cc1ccc(OCC(=O)NCC2(N(C)C)CCCCC2)cc1C` was tested, and the survival was inactive: 89%. With `Cc1ccc(C)c(NC(=O)Cn2c(=O)n(-c3ccc(CC(=O)NCC4CCCO4)cc3)c(=O)c3ccccc32)c1` (stereo unspecified) the survival was inactive: 102%. In the case of `Cc1ccc(NC(=O)c2c(C)nc3sc(C(=O)Nc4ccc(F)cc4)c(N)c3c2-c2ccc(C)o2)c(C)c1`, the survival is reported as inactive: 79%. For `Cc1ccc(CNc2oc(-c3ccc(COc4ccc(C)cc4)o3)nc2C#N)cc1`, the survival was inactive: 92%. For `CCCOc1ccc(C(=O)NCC2OCCc3ccccc32)cc1` (stereo unspecified), the survival was inactive: 74%. For `CC1CN(C(=O)CCC(=O)Nc2cc(F)ccc2F)c2ccccc2S1` (stereo unspecified), the survival was inactive: 69%. In the case of `COc1ccc(-n2c(SCC(=O)N3CCc4ccccc43)nc3c([nH]c4ccccc43)c2=O)cc1`, the survival is reported as inactive: 81%. With `CCCc1nc2ccccc2n1CC(O)COc1ccc(C(=O)OC)cc1` (stereo unspecified) the survival was inactive: 77%. `CCOC(=O)C1CCCN(C(=O)Cn2ncc3c(C)n(Cc4ccccc4Cl)c(C)c3c2=O)C1` (stereo unspecified) was tested, and the survival was inactive: 118%. With `CCc1ccc(CNC(=O)c2cc3ccccn3n2)cc1` the survival was inactive: 113%. In the case of `COCCCN1C(=O)c2ccccc2CC1(C)C(=O)NC1CCCCC1` (stereo unspecified), the survival is reported as inactive: 88%. In the case of `COc1ccc(C2C(C(=O)Nc3ccc(Cl)cc3)=C(C)Nc3nc(SCc4cccc(C)c4)nn32)cc1OC` (stereo unspecified), the survival is reported as inactive: 81%. With `CCC1CCCCN1S(=O)(=O)c1ccc(C(=O)Nc2sc3c(c2C(N)=O)CCC3)cc1` (stereo unspecified) the survival was inactive: 74%. With `O=C(CSc1nnc(-c2ccccc2F)o1)Nc1cccc(C(F)(F)F)c1` the survival was inactive: 60%. With `O=C(Nc1ccc(Cl)cc1F)c1cnc2sc(N3CCOCC3)nn2c1=O` the survival was inactive: 76%. In the case of `Cc1ccc2nc(NC(=O)CSc3nccn3-c3ccc(Cl)cc3)sc2c1`, the survival is reported as inactive: 74%. `CC(C)(C)OC(=O)N1CCC(c2c(C(=O)N3CCN(c4ccccn4)CC3)cnn2-c2ccccc2)CC1` was tested, and the survival was inactive: 72%. For `COc1ccc(-c2nc(C)c(CCNC(=O)c3cccs3)s2)cc1OC`, the survival was inactive: 69%. For `COc1ccccc1CNc1cc(C)nc2nc(-c3ccc(C)cc3)nn12`, the survival was inactive: 92%. `O=C(c1ccccc1)N1CCN(C2CCCCC2)CC1` was tested, and the survival was inactive: 108%. In the case of `COCCNC(=O)Cn1c(=O)n(CCCCCC(=O)NCc2ccccc2Cl)c(=O)c2sccc21`, the survival is reported as inactive: 87%. In the case of `c1ccc(-c2noc(-c3cccnc3NCc3ccco3)n2)cc1`, the survival is reported as inactive: 81%. In the case of `Cc1cccc(Cn2c(SCc3ccc(C(=O)NCc4ccccc4F)cc3)nc3ccncc32)c1`, the survival is reported as inactive: 80%. In the case of `Cc1ccc(NC(=O)Cn2c(=O)oc3cc(S(=O)(=O)N4CCCCC4)ccc32)c(Cl)c1`, the survival is reported as inactive: 106%. In the case of `CCN(CC)CCCNC(=O)CCCn1ncn2c(cc3occc32)c1=O`, the survival is reported as inactive: 85%. `CC1CCCCN1C(=O)Cn1ncc2c3ccccc3n(Cc3ccccc3F)c2c1=O` (stereo unspecified) was tested, and the survival was inactive: 26%. `CC(C)(C)C1CCc2c(sc3nc(-c4cc5ccccc5oc4=O)[nH]c(=O)c23)C1` (stereo unspecified) was tested, and the survival was inactive: 81%. With `Cc1c(-c2cccc(NC(=O)Nc3ccc(Cl)cc3)c2)nc2ncccn12` the survival was active: -4%. In the case of `COc1ccccc1-c1noc(-c2ccc(NC3CCCCC3)c([N+](=O)[O-])c2)n1`, the survival is reported as inactive: 86%. For `COc1ccc(CN(C(=O)c2cc3ccccc3oc2=O)C2CCS(=O)(=O)C2)cc1OC` (stereo unspecified), the survival was inactive: 66%. In the case of `CCCCN(CCCNC(=O)CN1N=C(c2ccc(C)cc2)CCC1=O)c1ccccc1`, the survival is reported as inactive: 101%. For `COc1cccc(NC(=O)CCc2nc3c(C)nn(-c4ccc(C)cc4)c3n(C)c2=O)c1`, the survival was inactive: 72%. In the case of `Cc1ccc2c(c1)-c1c(cnn1CC(=O)N1CCN(c3ccccc3F)CC1)CO2`, the survival is reported as inactive: 77%. With `COCCCNC(=O)c1cnc2sc(N3CCCCCC3)nn2c1=O` the survival was inactive: 69%. `CCSc1nc2c(c(=O)[nH]c(=O)n2C)n1CC` was tested, and the survival was inactive: 98%. In the case of `O=c1c(=O)n(Cc2ccc(Cl)cc2)ccn1Cc1ccc(F)cc1`, the survival is reported as inactive: 90%. With `Cc1ccc(-c2nc(CNC(=O)Nc3ccccc3)c(C)o2)cc1` the survival was inactive: 68%. With `COc1ccc(-c2cn3cccnc3n2)cc1NC(=O)Cc1ccccc1` the survival was inactive: 99%.
